Here are results for 29 compounds from PubChem BioAssay AID488969 (Vanderbilt High Throughput Screening Facility, 2010).

In all, about 110,000 compounds were measured (“z-score”: median about -0.1, highest 2% from about 2 on). Some of the results follow.

The experiment concerns the target Metabotropic glutamate receptor 8 (Rattus norvegicus) (UniProt P70579). Briefly: rat mGluR8 modulators via GIRK flux, primary screen, cell-based, thallium flux, HTS (AID 488969). The settings on record: HEK293 rat mGluR8, GIRK (G protein-gated inwardly rectifying potassium channel) thallium flux, FluoZin2; at 10 µM; stronger effect = higher value; submaximal glutamate (EC20) added with thallium.
Sequence of UniProt P70579 (P70579 whole entry, looked up): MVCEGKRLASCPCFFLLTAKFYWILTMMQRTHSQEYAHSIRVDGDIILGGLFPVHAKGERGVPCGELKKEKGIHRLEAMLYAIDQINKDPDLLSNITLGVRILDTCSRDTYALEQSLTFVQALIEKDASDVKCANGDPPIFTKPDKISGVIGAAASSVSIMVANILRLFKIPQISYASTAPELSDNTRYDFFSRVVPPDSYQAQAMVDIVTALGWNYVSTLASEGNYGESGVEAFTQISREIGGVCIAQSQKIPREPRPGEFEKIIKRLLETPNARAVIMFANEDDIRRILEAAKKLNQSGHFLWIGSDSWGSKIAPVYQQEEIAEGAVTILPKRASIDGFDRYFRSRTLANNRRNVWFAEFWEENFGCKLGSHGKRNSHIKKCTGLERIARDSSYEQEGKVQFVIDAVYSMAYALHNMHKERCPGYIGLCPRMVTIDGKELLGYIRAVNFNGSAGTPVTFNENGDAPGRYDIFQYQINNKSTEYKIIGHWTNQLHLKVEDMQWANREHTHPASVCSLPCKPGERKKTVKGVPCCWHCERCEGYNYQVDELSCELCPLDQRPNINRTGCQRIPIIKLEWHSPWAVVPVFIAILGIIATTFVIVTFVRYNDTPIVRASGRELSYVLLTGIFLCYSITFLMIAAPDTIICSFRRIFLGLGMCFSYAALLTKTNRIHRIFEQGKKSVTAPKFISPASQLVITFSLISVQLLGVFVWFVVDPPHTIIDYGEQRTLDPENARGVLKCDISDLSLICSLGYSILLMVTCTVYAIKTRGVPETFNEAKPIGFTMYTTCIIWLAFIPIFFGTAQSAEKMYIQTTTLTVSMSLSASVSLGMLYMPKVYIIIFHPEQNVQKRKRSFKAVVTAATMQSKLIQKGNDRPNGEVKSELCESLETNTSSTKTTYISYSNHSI
Compound `CC1CC(C)CN(C(=O)c2ccc3c(c2)N(Cc2ccccc2)CCS3)C1` (centres undefined) showed a z-score of 0.328. Under `CC(NC(=O)C1C2C=CC(C2)C1C(=O)O)c1ccccc1` (centres undefined) stands 0.126; under `COc1ccc(NC(=O)C2CCCN(S(=O)(=O)c3cccnc3)C2)cc1` (centres undefined), -0.432; under `CN(CC(=O)Nc1ccc(Cl)cc1)C(=O)c1cccc(S(=O)(=O)N(C)C)c1`, -0.335. On to `COCCN(Cc1cc2ccc(C)cc2n2nnnc12)Cc1nnnn1C(C)(C)C`, for which the z-score was -0.471. The result for `CCN1CCN(C(=O)C(NS(=O)(=O)c2ccc3nc(C)sc3c2)C(C)C)CC1` (centres undefined) reads -0.175; that for `COc1ccc(CCN(Cc2cccs2)S(=O)(=O)c2ccc(S(=O)(=O)N3CCC(C)CC3)cc2)cc1OC`, -0.101. On to `Cc1ccc(C(=O)/C=C/c2ccc(-c3ccc(C)cc3)o2)cc1`, for which the z-score is -0.0351.

`COc1ccc(S(=O)(=O)N2CCC(C(N)=O)CC2)cc1` registered a z-score of 0.189. In the case of `CCOCCCNC(=O)CCSc1ccc(C)cc1`, the z-score was -0.127. The result for `COc1cc(/C=N/S(=O)(=O)CCc2ccccc2)ccc1O` reads -0.181.

`CCOC(=O)CNC(=O)C(CC(C)C)NC(=O)C1CCCCC1` (centres undefined): the z-score was -0.311. Under `COc1ccc(/C=N/NC(=O)c2cccnc2)cc1CSc1nc2ccccc2s1` stands -0.0351; under `COC(=O)c1ccc(C(=O)OC)c(NS(C)(=O)=O)c1`, 0.124; under `CCOC(=O)CSc1nc2ccccc2c(=O)[nH]1`, -0.114.

Consider `Cc1cccnc1NC(=S)NC(=O)c1cncc(Br)c1`, for which the z-score is -0.14. Regarding `O=C(CSc1nnnn1-c1ccc(Cl)cc1)N1CCc2ccccc2C1`, the z-score was -0.679.

As to `CCOCCCNC(=O)C(c1ccccc1)N(Cc1ccc2c(c1)OCO2)C(=O)CNC(C)=O` (centres undefined), the z-score came out at 1.03. Under `CCOc1ccc2nc(COC(=O)c3cccs3)c(C(=O)c3ccccc3)[n+]([O-])c2c1` stands -0.436; under `CN(C1CCCCC1)S(=O)(=O)c1ccc(S(=O)(=O)N2CCCC2)cc1`, -0.243; under `Cc1cc(C)c[n+](C(C)C(=O)c2ccc(-c3ccccc3)cc2)c1` (centres undefined), -0.82. Compound `COc1cc(CCN2C(=O)c3cccc4cccc(c34)C2=O)c(S(=O)(=O)NCCCO)cc1OC` gave a z-score of 0.452. With `Cc1onc(-c2ccccc2)c1C(=O)NCc1ccccn1`, the z-score is -0.395.

As to `CC(C)Oc1ccc(/C(O)=C2/C(=O)C(=O)N(Cc3cccnc3)C2c2ccco2)cc1` (centres undefined), the z-score was -0.11.

For the compound `CC(C)c1ccc(C2CC(=O)c3cnc(N4CCc5ccccc5C4)nc3C2)cc1` (centres undefined), the z-score is -0.0129. Under `O=C(Nc1ccc(N2CCOCC2)c(Cl)c1)c1ncn[nH]1` stands -0.473; under `O=C(/C=C/c1ccc(Cl)cc1Cl)N1CCc2ccccc21`, -0.126. As to `CCOC(=O)N1CCN(C(=O)CN(c2ccc(Cl)c(C(F)(F)F)c2)S(C)(=O)=O)CC1`, the z-score is 0.0949. Under `O=C(Nc1ccc(Br)cc1)c1ccccc1CC[N+](=O)[O-]` stands -0.112.
